Test results published in PubChem BioAssay AID488969 (Vanderbilt High Throughput Screening Facility, 2010).
The full ranking holds about 110,000 compounds; the median of “z-score” is about -0.1, and the highest 2% start at about 2. The list shows a part of the results. The source made the active and inactive calls.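 Rule for the calls: active = z-score in the third read window above 3 or below -3; inactive = the rest.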

These compounds were tested against Metabotropic glutamate receptor 8 (Rattus norvegicus) (UniProt P70579) (assay: rat mGluR8 modulators via GIRK flux, primary screen, cell-based, thallium flux, HTS (AID 488969)). Conditions: HEK293 rat mGluR8, GIRK (G protein-gated inwardly rectifying potassium channel) thallium flux, FluoZin2; at 10 µM; stronger effect = higher value; submaximal glutamate (EC20) added with thallium.
UniProt P70579, sequence (P70579 whole entry, looked up): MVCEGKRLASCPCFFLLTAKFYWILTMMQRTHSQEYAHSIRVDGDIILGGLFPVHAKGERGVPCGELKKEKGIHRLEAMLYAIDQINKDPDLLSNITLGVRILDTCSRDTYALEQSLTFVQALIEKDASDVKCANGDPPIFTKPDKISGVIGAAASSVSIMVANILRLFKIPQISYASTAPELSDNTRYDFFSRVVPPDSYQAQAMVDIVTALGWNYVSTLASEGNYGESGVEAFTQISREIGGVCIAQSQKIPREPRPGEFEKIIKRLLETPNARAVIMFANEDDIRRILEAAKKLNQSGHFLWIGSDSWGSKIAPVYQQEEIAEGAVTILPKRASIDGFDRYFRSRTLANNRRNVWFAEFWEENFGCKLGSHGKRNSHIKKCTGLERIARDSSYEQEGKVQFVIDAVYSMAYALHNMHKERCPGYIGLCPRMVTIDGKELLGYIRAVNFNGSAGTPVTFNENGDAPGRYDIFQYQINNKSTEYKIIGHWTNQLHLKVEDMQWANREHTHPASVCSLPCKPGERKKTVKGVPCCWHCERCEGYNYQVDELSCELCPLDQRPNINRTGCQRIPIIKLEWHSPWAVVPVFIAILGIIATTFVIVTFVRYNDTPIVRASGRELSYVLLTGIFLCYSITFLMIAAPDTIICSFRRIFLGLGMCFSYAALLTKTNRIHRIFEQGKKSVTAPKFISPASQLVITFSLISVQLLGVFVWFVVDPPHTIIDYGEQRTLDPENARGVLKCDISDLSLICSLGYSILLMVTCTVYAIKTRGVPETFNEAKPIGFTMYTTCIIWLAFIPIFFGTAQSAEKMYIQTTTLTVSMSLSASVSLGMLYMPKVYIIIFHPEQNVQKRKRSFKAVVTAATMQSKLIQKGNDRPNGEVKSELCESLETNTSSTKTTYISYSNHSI

Going from `CCCC(c1nnnn1Cc1ccc(OC)cc1)N1CCN(c2ccccc2OC)CC1` (stereo unspecified) to `COc1ccc(-c2nnc(SCCC(=O)O)n2-c2ccccc2)cc1`, the z-score rises from -0.369 to -0.00399.

Compared with `Cc1c(NC(=O)c2nn(C)c(=O)c3ccccc23)c(=O)n(-c2ccccc2)n1C`, `O=C(Nc1ccccc1)c1cc(Cl)nc2ccccc12` is higher in z-score: -0.208 for the first, 0.011 for the second.

Going from `Cc1cccc(NCc2nc3ccccc3n2Cc2ccccc2)c1` to `O=c1c2ccccc2nc(-c2ccco2)n1/N=C/c1ccccc1O`, the z-score rises from -1.03 to -0.0515.

Going from `O=C1OC(OC2CCCCC2)(c2ccccc2)c2ccccc21` (stereo unspecified) to `CNC(=O)C1CC(=O)N(CCCc2ccccc2)C(=Nc2ccccc2)S1` (stereo unspecified), the z-score falls from 0.227 to -0.334.

Compared with `COC(=O)CCCC(=O)Nc1ccc(Cl)c(Cl)c1`, `CCOc1ccc(NC(=O)Cn2nnc(C(=O)NCc3ccco3)c2N)cc1` is lower in z-score: 0.876 for the first, 0.4 for the second.

Going from `Cc1cc(C(=O)Nc2c(C)nn(Cc3ccc(F)cc3)c2C)on1` to `Cc1ccc(Cn2nc(C)c(NC(=O)c3cc(C)no3)c2C)cc1`, the z-score rises from -0.239 to 0.245.

First: CC1CCCC(NC(=O)COC(=O)CN2C(=O)C3CCCCC3C2=O)C1C (stereo unspecified)
Second: COc1ccccc1CNC(=O)C1CCC(CNc2c(N3CCOCC3)c(=O)c2=O)CC1 (stereo unspecified)
The z-score of the first is lower: 0.0235 for the first, 0.611 for the second.

First: O=C1NC2(NN1c1ccccc1)C1CC3CC(C1)CC2C3 (stereo unspecified)
Second: N#CC1=C(N)N(c2ccccc2)C2=C(C(=O)CCC2)C1c1cccs1 (stereo unspecified)
The z-score of the first is higher: 1.02 for the first, -2.59 for the second.

Going from `C/C(=N\NC(=O)C(C)Oc1ccc([N+](=O)[O-])cc1)c1ccccn1` (stereo unspecified) to `CC(=O)Nc1ccc(Sc2ncccc2C(=O)Nc2ccc(OC(F)(F)F)cc2)cn1`, the z-score falls from -0.0172 to -0.328.

Going from `N#CCCNc1ccc(OCCC#N)cc1` to `C=CCNCCCCOc1ccccc1`, the z-score falls from 0.0784 to -0.066.

First: CC(C)OP(=O)(OC(C)C)C(Nc1ccccc1)c1cccc2c1OCO2 (stereo unspecified)
Second: CN(/N=C/c1ccc2c(c1)OCO2)c1ccccc1
The z-score of the first is lower: -0.329 for the first, -0.188 for the second.

First: N#Cc1ccc(-c2ccc3c(c2)OCO3)nc1SCC(=O)OCc1ccccc1
Second: Fc1cccc(Cn2ccc(-c3ccc4c(c3)OCO4)n2)c1
The z-score of the first is higher: 1.02 for the first, -0.207 for the second.

Going from `CCOc1cc(C)c(C(C)C)cc1S(=O)(=O)N1CCOCC1` to `Cc1ccccc1NC(=S)N(CCCN1CCOCC1)Cc1ccccn1`, the z-score falls from -0.135 to -0.341.

Going from `Cn1c(C(=O)N2CCc3ccccc3C2)cc2c(=O)n3ccccc3nc21` to `NC(=O)CN1C(=O)C2C3c4ccccc4C(c4ccccc43)C2C1=O` (stereo unspecified), the z-score rises from -0.835 to -0.00416.

First: NNC(=O)COc1cccc2cccnc12
Second: COc1ccc(C(=O)Nc2nc(N)n(-c3ccccc3)n2)cc1OC
The z-score of the first is lower: -0.0578 for the first, 0.0645 for the second.

Compared with `Cc1ccc(S(=O)(=O)N(C)C)cc1NC(=S)NNC(=O)C1CC1`, `CCc1nnc(NS(=O)(=O)c2ccc(NC(=S)NC(=O)/C=C/c3ccccc3)cc2)s1` is higher in z-score: -0.0228 for the first, 0.0117 for the second.

First: Cc1ccc(-n2nc(C)c3c(C)cc(=O)[nH]c32)cc1
Second: COC(=O)c1ccc(-c2ccco2)n1Cc1cc(C)ccc1C
The z-score of the first is higher: -0.176 for the first, -0.359 for the second.

Going from `CCN1CCN(CCNC(=O)c2ccc(CS(=O)(=O)c3c(Cl)cccc3Cl)o2)CC1` to `CCOC(=O)N1CCC(NC(=O)c2ccc3c(c2)N(Cc2ccccc2)CCS3)CC1`, the z-score falls from -0.55 to -1.66.

Compared with `Clc1ccc(C2=NNC(=NCc3ccc4c(c3)OCO4)SC2)cc1`, `COc1ccc(-c2n[nH]c(=S)n2-c2ccc3c(c2)OCCO3)cc1` is lower in z-score: 0.213 for the first, -0.504 for the second.

Compared with `O=C1Nc2ncccc2OC1CCCl` (stereo unspecified), `Cc1nnc(NCCc2ccccc2)[nH]c1=O` is lower in z-score: -0.25 for the first, -0.988 for the second.

Going from `CCN(CC)c1ccc(C2Nc3cccc4cccc(c34)N2)c(O)c1` to `COc1cccc(CSc2nc3ccccc3[nH]2)c1`, the z-score rises from 0.865 to 2.68.

Going from `O=C(O)c1ccc2oc(SCC(=O)N3CCCCC3)nc2c1` to `O=C(O)C1CC=CCC1C(=O)Nc1ccc(S(=O)(=O)N2CCCc3ccccc32)cc1` (stereo unspecified), the z-score rises from 0.0845 to 0.819.

Compared with `CCn1c(CS(=O)Cc2ccc(Cl)cc2Cl)nnc1SCc1c(Cl)cccc1Cl` (stereo unspecified), `Cc1cccc(C)c1OCc1nnc(SCC(=O)NCc2ccccc2)o1` is higher in z-score: -0.193 for the first, 0.511 for the second.

Compared with `Cc1cccc(NC(=S)NCc2cccs2)c1C`, `CCC(C)NC(=O)CC(NS(=O)(=O)c1ccc(Cl)cc1)c1ccco1` (stereo unspecified) is higher in z-score: -0.209 for the first, 0.491 for the second.

Going from `O=C(CO)N/N=C/c1ccc(Cl)cc1` to `Cc1oc(/C=N/NC(=O)CC2(C)OCCO2)cc1Br`, the z-score rises from -0.305 to -0.17.

Going from `O=C(Oc1ccccc1N1C(=O)C2CC=CCC2C1=O)c1ccc(Br)cc1` (stereo unspecified) to `O=C(O)CCc1ccc(-c2ccc(Br)cc2)o1`, the z-score rises from -0.0274 to 0.0398.

Compared with `COc1ccc(C)cc1NC(=O)c1cc2c(s1)CCC2`, `COc1cc(NS(=O)(=O)c2ccc(N/C=C(\C#N)c3nc4ccccc4o3)cc2)nc(OC)n1` is lower in z-score: -0.139 for the first, -0.199 for the second.

Compound `Cn1nc([N+](=O)[O-])nc1Oc1ccccc1` has a z-score of -0.412.

With `COc1cccc(NC(=O)CCCn2c(=S)[nH]c3ccccc3c2=O)c1` the z-score was active: 3.39.
